Test results reported in US11192863B2, “Antiviral compounds and methods” (Biotron Limited, priority 2003, dated 2021).

Key:
[1] = molecular target: HCV p7 protein (Hepatitis C virus genotype 1a, UniProt P27958, L790F); conditions: halo of growth score; E. coli expressing p7 at 37° C.
[2] = molecular target: MHV E protein (Murine coronavirus, UniProt P0C2R0); conditions: halo of growth score; E. coli expressing E protein at 37° C.
[3] = molecular target: Vpu ion channel (Human immunodeficiency virus type 1 group M subtype B, UniProt P05919); conditions: for Results (Compounds Inhibiting the Vpu Ion Channel in Bilayers): drug 100 μM in CIS and TRANS chambers, Vpu N-terminal peptide (residues 1-32), number of experiments x category; for blocking of Vpu channels (in words): bilayer experiments

Row | Structure (SMILES) | HCV p7 protein Inhibition (score/# of times tested) [1] | MHV E protein Inhibition (score) [2] [score] | Results (Compounds Inhibiting the Vpu Ion Channel in Bilayers) [3] | other results
1 | Cc1cccc(/C=C/C(=O)NC(=N)N)c1 [3-methylcinnamoylguanidine] | 0.63/1 score | 0.5 | 2x strong block; 2x partial | –
2 | N/C(=N\C(=O)c1nc(Cl)c(N)nc1N)NCc1ccccc1 [Benzamil, N-Benzyl-N′-(3,5-diamino-6-chloro-pyrzine-2-carbonyl)-guanidine] | – | – | 3x partial block; 7x no effect | blocking of Vpu channels (in words) [3]: much less effective
3 | N=C(N)NCCCCCOCc1cccc(COCCCCCNC(=N)N)c1 [N-{5-[3-(5-Guanidino-pentyloxymethyl)-benzyloxy]-pentyl}-guanidine] | – | – | 3x strong block; 1x no effect | –
4 | N=C(N)NC(=O)c1nc(Cl)c(N)nc1N [Amiloride, reference compound] | – | – | – | blocking of Vpu channels (in words) [3]: not a blocker
5 | N/C(=N\C(=O)c1nc(Cl)c(N)nc1N)Nc1ccccc1 [Phenamil, N-(3,5-Diamino-6-chloro-pyrazine-2-carbonyl)-N′-phenylguanidine] | – | – | 3x Strong block | blocking of Vpu channels (in words) [3]: strong blocking
6 | COc1nc(N2CCCCCC2)c(Cl)nc1C(=O)N=C(N)N [3-methoxy-HMA, 3-methoxy-5-(N,N-Hexamethylene)-amiloride] | – | – | 3x partial block | –
7 | NC(N)=NC(=O)c1nc(Cl)c(-c2ccccc2)nc1N [N-amidino-3-amino-5-phenyl-6-chloro-2-pyrazinecarboxamide] | – | – | 3x partial block | –
8 | CCN(c1nc(N)c(C(=O)N=C(N)N)nc1Cl)C(C)C [5-(N-Ethyl-N-isopropyl)amiloride, 5-(N-ethyl-N-isopropyl)amiloride] | 1.88/1 score | – | 1x partial block | Results (Compounds Inhibiting the Vpu Ion Channel in Bilayers) ([3]; listed as EIPA): 3x weak block;
9 | CC(C)CN(C)c1nc(N)c(C(=O)N=C(N)N)nc1Cl [5-(N-Methyl-N-isobutyl)amiloride, 5-(N-methyl-N-isobutyl)amiloride] | 1.88/1 score | – | 1x partial block | Results (Compounds Inhibiting the Vpu Ion Channel in Bilayers) ([3]; listed as MIA): 1x Strong block; 1x weak
10 | N=C(N)NC(=O)Cc1cccc2ccccc12 [2-(1-napthyl)acetoylguanidine] | 1.14/1 score | 0.4 | – | –
11 | N=C(N)NC(=O)/C=C/c1ccc(Cl)cc1Cl [2,4-dichlorocinnamolyguanidine] | 0.38/1 score | 0.8 | – | –
12 | CC(C)c1cccc(/C=C/C(=O)NC(=N)N)c1.Cl [3-isopropylcinnamoylguanidine hydrochloride] | 2.00/1 score | 4.2 | – | –
13 | NC(N)=NC(=O)/C=C/c1ccc(Cl)cc1 [(4-Chlorocinnamoyl)guanidine] | 3.16/4 score | 1.3 | – | –
14 | N=C(N)NC(=O)/C=C/c1cccc(-c2ccccc2)c1 [3-phenylcinnamoylguanidine] | 1.0/1 score | 3.7 | – | –
15 | Cc1ccc(/C=C/C(=O)NC(=N)N)cc1 [4-methylcinnamoylguanidine] | 2.32/2 score | 0.4 | – | –

Like-named read-outs stand apart in the source and are kept apart here.
